Test results published in the RNAGym collection of RNA variant scans (doi:10.7554/elife.90254).
The source gives no read counts; variants with many changes may rest on few reads.

B1: OR4K15 (parent)
chain: GUUAACGGUCAUAGGCCAUGGAAACUAGGAGCACCAUUUCGCUGCCAGUGAAGAAAUGAACAAAGAAAAUCUGGGCCAGGCAGGCAUCAAAAGAAAUAGUCUUGCGCUCAACCAGAAAGUCUGUAAUCAUUUUAAGGGUA

Variants of: B1
Experiment: self-cleavage, relative activity (ratio to wild type); higher = more cleavage; in vitro, sequencing; the parent is a self-cleaving ribozyme

Variant	self-cleavage
A22G U39C A52G U87C	1.16
A23G U49C U131C	1.16
A23G A30G U49C A64U A91G C105A	0.04
A23G U57C A135U	1.98
A22G C40U U97C	0.8
A23G U39C A51G U131C	0.53
A23G G31A A64G U70C	0.81
A23G A82G A118G	0.32
A23G A59G A114G	0.13
A23G G28A U43C A94G U122C	0.43
A23G A33G A86U	1.14
A23G U38C U130C	0.17
A23G A47G A68G A116G	0.83
A23G A67C U87C	0.9
A23C A66G A92G	0.56
A22G U43C U57C A69G U108C A129G	0
A22G U57C A68G A135G	0.9
A23G A24C U37C A92G	0.84
A23G A110G U122C U127C	0.01
A23G U49C A51G U57C U70C	0.7
A23G U39C A52G	2.67
A22G C45U A66G	0.93
A22U A24U U103C A125G	0.28
A23G A27G A56G A63U U72C C85U U120C	0.23

Variant	self-cleavage
A22U A36G U43C A66G A111G	0.11
A22G U43A A110G	0.09
A22G U49C A68G U131C	0.83
A23G A47G A54G A96G	0.07
A22U A59G A90G A135U	0.94
A23G U43C A60G	0.22
A23G A59G A129C	0.97
A23G A33G U43C A55G A59G C121U	1.15
A23G A27G A62U A92G A94G A114U A118U	0
A23G U57C A60U U72C A94G U103C	0.05
A23G A30G A78U U102C U103G	0.1
A22G C46U A86G A90G C113U	0.01
A23G A59G U130C	1.33
A23G A64U A114U	0.07
A23G A30U A90G	1.37
A23G A91G U124C	2.03
A22G U102C A114U	0.3
A23C A52G U132C U133A	2.03
A22G U39C A60G U133C	1.12
A23G U43G A68G A82G U87C	0.9
A23G A52U G106A	0.08
A23G U49C A89G	1.22
A22G U37C G44A U103A	1.11
A23G A27G U39C U122C	0.75

Variant	self-cleavage
A23G A60G A98G A116G	0.08
A22U A69U U102C	1.98
A23G A33G U102A	0.29
A23G C76G A111G A116U	0
A22U C45U G115U	0.35
A23G A24C A59G A82U U108C U122G	0.01
A23G U43C U102C U131C	2.01
A22G G58A A78G U131C	0.32
A23G A55G A69G	1.1
A23G A56G U70C U100C U122C	1.39
A22G U37C A125G	0.64
A23C A67U A140G	1.16
A23G U49C U102A U132A	0.72
A23G A78G U122C	0.07
A23G A62G A92G	0.54
A23G A110U U127C	0.37
A23G A47G A52G	0.75
A22G U39C A114C U120C A126G	0.01
A23G A52G A110U	1.06
A23G A54G A68G A118G	0.59
A23G A33G A67G	1.02
A23G A55G A82U G123A	0.23
A23G A62G A68G A114G U127A	0.22
A23G A64G A114G	0.46

Variant	self-cleavage
A23C C45U U97C	0.8
A23G A62G A90G	0.69
A22U A51G A55G A59G G74A A78C	0.31
A22U A55G U57A A59U U72A U87C	0.23
A23G A55G A63G	1.39
A23G A82G A135C	0.13
A23G A68G U97C	1.67
A23G A54G G74A G93A A118G	0.17
A23G A27U A33U A82G A118G	0.69
A22G U38C A56G A90G A110G	0.08
A22G U100C A111G U120C U127A	0
A23G A86U U87C U103C A126G A134G	0.14
A22U A23G U122C A134G	0.66
A22G U43A A89G A118U	0.63
A23G A63G U70C A92G	0.12
A23G G83A U130C U132C	2
A23C U37C A67G U120A G138A	1.2
A23G U38C U49C A94G U120C U133C	0.74
A23G G74U A110G	0.04
A22G U39A A52G A66G A96G U120C C121U A135U	2.13
A23G A27G A30U A94U U97C U122C A140G	0.97
A23G A30U A82C A89G	0.07
A22G U57A G74A G106A	0.02
A23G A47G A118G	0.41

Variant	self-cleavage
A23G A24G A51G A66G U72G A86C	0.09
A22G U26C G28C A60G U132C	0.87
A23G A24G A68G U131C	0.84
A22G U43C U57G	0.86
A23G U37C U70C U108A A117G U139C	0.02
A23C U72C A92G G93A U97A C105G	0.02
A23G A36G U70C	0.6
A23G U43C A69G G123U A126G	1.27
A23G A55G A82G U122C U127C U132C	0.17
A23G A62G A111G	0.09
A23G A52G U122C	1.15
A23G U43C A90G	0.85
A23G A60G A64G A89G A98U A111G	0.1
A23G U26C A69G	0.92
A23G A110G A126G	0.15
A22G U39A U43C	1.2
A23G G44U A52U A89G A91G A98G	1.05
A23G U37C A67U A94U	1.15
A23G A33U A52G	1.05
A23G A63C A94G	1.87
A23G U26C U37C C81U	0.5
A23G A54G A89G A94U G104A U130C	0.01
A23G A69G A78C A90U	0.22
A22G U39A A78G U132C	0.38

Variant	self-cleavage
A23G A33U A96G	1.36
A23G A59G U122A	0.65
A23G U38A A89G C109A	0.43
A23G A96G U100C	1.42
A23G A56C U57C A116C U120C	0.03
A23G A59U A82U U130C	0.12
A23G A89G A111G U120C U124C	0.01
A22G U39C U43A	1.59
A23G A52G A63G A82G A91G A116G U130C	0.1
A22G U26C A60G A67G A98C	1.52
A23C A89U A111G	0.02
A23G A30U A98G	0.48
A23C U39A A51U	1.33
A22G U57A A118G	1.12
A22G U57C U72C U122A	0.13
A22G U39A A114U	0.09
A23G A66G A89U U108A	0.08
A23G A63G A95G U100G	1.1
A23G A51G A64G A96G A135U	0.89
A23G U49A A78G C101U U122A	0.08
A23G C45U A69G A94U A95G C101U U108C	0.01
A23G A64G A90G U103C	0.08
A23G A92G A116U	0.46
A23G A64G A91G A114G	0.68

Variant	self-cleavage
A23G A33G U97C U122A	0.12
A22U A54G U70C A118G	0.28
A23G U57C G83A	1.08
A22U A47G U57C A140U	0.82
A23G U39C A69G U102C	1.28
A23G G48U A82U A91G	0.05
A22G G93U U108A	0.07
A22G U97C G106A A116G	0
A23G A82U U102C A118G	0.12
A23G A82G A86G A110C	0.03
A23G A62G A69G A86G	1.15
A23G U37C U43C A54G A64G A82U	0.19
A23G U39C A62U A68G U70C U131C	1.27
A23G A82G A134G	0.47
A22U A54G A64G A67G G83U U102C U103C	0.04
A22G U38C U49C G79U	0.12
A23G A86G U132C	1.32
A23G U49C A62G A69G A86G	0.55
A22U A24G U38A A117U	1.05
A23G A89C A114G A118G	0.14
A23G A67G G79A	0.22
A22G U43C U108C A140G	0.02
A23G A33G A125U	1.38
